The supplement of paper PMC10369915
Some of the results follow. Rule as the data show it: active = 3.2 or more and inactive = the rest. Only a few entries rise above the background.

Assays:
Assay in all cases: enrichment score (SH2-bound / input frequency) (ratio); bacterial display of known human phosphotyrosine sites (pTyr-Var adds point mutants) read by sequencing; higher = stronger binding; tyrosines were phosphorylated by kinases first
Conditions in all cases: peptide library: pTyr-Var
[1] = biological target: SHP2 C-SH2 domain E139D
[2] = biological target: SHP2 C-SH2 domain wild-type
[3] = biological target: SHP2 N-SH2 domain L43F
[4] = biological target: SHP2 N-SH2 domain T42A
[5] = biological target: SHP2 N-SH2 domain T52S
[6] = biological target: SHP2 N-SH2 domain wild-type

Measured: enrichment score
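Also: displayed peptides selected on beads carrying the immobilized SH2 domain, with library peptides lacking any tyrosine serving as negative controls.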

GMSQAYSFSQR [DES_Y5_S7F]
inactive: [1] 0.78 | [2] 0.795 | [3] 0.724 | [4] 0.751 | [5] 0.717 | [6] 0.79

VTNHIYTWVDP [DFNB31_Y234]
inactive: [1] 1.57 | [2] 1.34 | [3] 1.25 | [4] 1.61 | [5] 1.56 | [6] 1.33

HICTAYELVLA [DHCR24_Y190]
inactive: [1] 1.28 | [2] 1.57 | [3] 1.5 | [4] 1.06 | [5] 1.01 | [6] 2.11

RKLASYRSCLL [DHX37_Y1080]
inactive: [1] 0.747 | [2] 0.868 | [3] 0.581 | [4] 0.764 | [5] 0.829 | [6] 0.689

MDQAEYQAKIR [DHX58_Y518]
inactive: [1] 0.49 | [2] 0.441 | [3] 0.46 | [4] 0.385 | [5] 0.625 | [6] 0.429

RLPSGYGLAYR [DLK1_Y262]
inactive: [1] 1.11 | [2] 0.858 | [3] 0.901 | [4] 0.883 | [5] 0.921 | [6] 0.917

VILENYGADID [DNAH5_Y596_L591V]
inactive: [1] 0.851 | [2] 0.641 | [3] 0.832 | [4] 0.797 | [5] 1.08 | [6] 0.836

GMEIVYVYVKK [DNAI2_Y5]
inactive: [1] 1.99 | [2] 2.15 | [3] 1.84 | [4] 1.59 | [5] 1.81 | [6] 1.95

FFIMMYTGSNV [DNAJC13_Y1131]
inactive: [1] 0.919 | [2] 1.14 | [3] 0.888 | [4] 0.836 | [5] 1.02 | [6] 0.91

DQIDTYELSGA [DNM1_Y354_G359A]
inactive: [1] 0.757 | [2] 0.668 | [3] 0.748 | [4] 0.468 | [5] 0.551 | [6] 0.711

EKEKKYMLPLD [DNM2_Y563]
inactive: [1] 0.97 | [2] 0.743 | [3] 0.689 | [4] 0.562 | [5] 0.875 | [6] 0.999

LRAGVYPEKDQ [DNM2_Y626]
inactive: [1] 1.03 | [2] 1.01 | [3] 1.24 | [4] 1.02 | [5] 1.01 | [6] 1.1

GIATGYLVLKE [DNMT3B_Y588]
active: [4] 3.22
inactive: [1] 0.987 | [2] 1.58 | [3] 0.947 | [5] 1.09 | [6] 0.983

GITTGYLVLKE [DNMT3B_Y588_A585T]
inactive: [1] 0.989 | [2] 1.13 | [3] 0.86 | [4] 2.91 | [5] 0.86 | [6] 1.01

GFPVHYTGVSN [DNMT3B_Y815_D817G]
inactive: [1] 0.992 | [2] 1.36 | [3] 0.938 | [4] 3.14 | [5] 1.06 | [6] 1.06

MKTISYETLIA [DOCK10_Y1350]
inactive: [1] 1.15 | [2] 1.19 | [3] 1.42 | [5] 1.35 | [6] 1.29
active: [4] 3.36

MKMISYETLIA [DOCK10_Y1350_T1347M]
inactive: [1] 1.26 | [2] 1.25 | [3] 1.9 | [5] 1.82 | [6] 1.31
active: [4] 3.83

DNPAKYFILEN [DPP10_Y512_S517N]
inactive: [1] 0.979 | [2] 0.939 | [3] 0.824 | [4] 0.841 | [5] 0.978 | [6] 1.19

EFLRNYFTDKA [DSG2_Y775]
inactive: [1] 1.09 | [2] 1.28 | [3] 1.19 | [4] 0.921 | [5] 0.796 | [6] 1.14

RLRIDYERVSQ [DSP_Y1542]
inactive: [1] 1.34 | [2] 1.51 | [3] 1.52 | [4] 1.33 | [5] 1.21 | [6] 1.55

YADGVYQALEE [DUOX2_Y70]
inactive: [1] 0.644 | [2] 0.666 | [3] 0.606 | [4] 0.56 | [5] 0.852 | [6] 0.576

YADGVYLALEE [DUOX2_Y70_Q71L]
inactive: [1] 0.789 | [2] 0.795 | [3] 0.995 | [4] 0.823 | [5] 0.914 | [6] 0.855

YLGRDYLETLM [DUS3L_Y610]
inactive: [1] 1.02 | [2] 1.43 | [3] 0.993 | [4] 1.01 | [5] 1.07 | [6] 1

NPSYNYEIVNQ [DYNC1H1_Y3379_R3384Q]
inactive: [1] 0.399 | [2] 0.419 | [3] 0.426 | [4] 0.404 | [5] 0.562 | [6] 0.566

NPSFNYEIVNR [DYNC1H1_Y3379_YF]
inactive: [1] 0.812 | [2] 0.716 | [3] 0.831 | [4] 0.795 | [5] 0.681 | [6] 0.795

TNQVIYLNPPI [DYNC1H1_Y970]
inactive: [1] 1.05 | [2] 1.16 | [3] 0.975 | [4] 3.01 | [5] 0.943 | [6] 1.04

TNQVICLNPPI [DYNC1H1_Y970_Y970C]
inactive: [1] 0.905 | [2] 0.832 | [3] 0.887 | [4] 0.663 | [5] 0.814 | [6] 1.18

KPMDTYYDSTR [DYNC2H1_Y2230]
inactive: [1] 0.648 | [2] 0.647 | [3] 0.747 | [4] 0.692 | [5] 0.788 | [6] 0.764

KPMDTYFDSTR [DYNC2H1_Y2230_YF]
inactive: [1] 0.661 | [2] 0.742 | [3] 0.657 | [4] 0.654 | [5] 0.624 | [6] 0.906

LGQRIYQYIRS [DYRK1B_Y271_Q275R]
inactive: [1] 2.56 | [2] 2.07 | [3] 2.08 | [4] 2.2 | [5] 2.33 | [6] 2.11

QRIFQYIQSRF [DYRK1B_Y273_YF]
inactive: [1] 1.4 | [2] 1.05 | [3] 0.786 | [4] 0.989 | [5] 0.966 | [6] 0.829

GLPQTYCVSGP [DYSF_Y1684]
inactive: [1] 0.845 | [2] 0.843 | [3] 0.965 | [4] 0.709 | [5] 0.78 | [6] 1.01

KTDVHYRSLGG [DYSF_Y1858]
inactive: [1] 0.513 | [2] 0.458 | [3] 0.491 | [4] 0.402 | [5] 0.396 | [6] 0.555

RPIEVYLCPEE [E2F3_Y349_G344R]
inactive: [1] 1.22 | [2] 0.963 | [3] 0.964 | [4] 0.988 | [5] 1.15 | [6] 1.15

MMVGAYSTLEG [ECPAS_Y470]
inactive: [1] 0.817 | [2] 1.28 | [3] 1.35 | [4] 1.99 | [5] 1.3 | [6] 0.873

ISMAGYSIPEL [EDAR_Y406_T403M]
inactive: [1] 1.09 | [2] 1.08 | [3] 1.29 | [4] 2.44 | [5] 1.18 | [6] 0.841

FGSVDCWEKFF [EEF1AKNMT_Y16_Y16C]
inactive: [1] 1.62 | [2] 1.66 | [3] 1.73 | [4] 1.61 | [5] 1.54 | [6] 1.41
